Source: PubChem BioAssay AID485344 (National Center for Advancing Translational Sciences (NCATS), 2010)
About 6,900 (2%) of roughly 340,000 compounds were called active. Cut-off read from the data, not from the text of the source: active = inhibition above about 30%; inactive = below that, where a call was filed. The entries are a selection whose mix differs from that of the whole data set. Entries without a call were filed so in the source.

These compounds were tested against D(2) dopamine receptor (Homo sapiens) (UniProt P14416) (assay: HTS Assay for Allosteric Antagonists of the Human D2 Dopamine Receptor: Primary Screen for Antagonists). Conditions: HEK293 TREx D2 cells, calcium flux, dopamine EC80; at 10 µM; stronger effect = higher value.
Sequence of UniProt P14416 (P14416 whole entry, looked up): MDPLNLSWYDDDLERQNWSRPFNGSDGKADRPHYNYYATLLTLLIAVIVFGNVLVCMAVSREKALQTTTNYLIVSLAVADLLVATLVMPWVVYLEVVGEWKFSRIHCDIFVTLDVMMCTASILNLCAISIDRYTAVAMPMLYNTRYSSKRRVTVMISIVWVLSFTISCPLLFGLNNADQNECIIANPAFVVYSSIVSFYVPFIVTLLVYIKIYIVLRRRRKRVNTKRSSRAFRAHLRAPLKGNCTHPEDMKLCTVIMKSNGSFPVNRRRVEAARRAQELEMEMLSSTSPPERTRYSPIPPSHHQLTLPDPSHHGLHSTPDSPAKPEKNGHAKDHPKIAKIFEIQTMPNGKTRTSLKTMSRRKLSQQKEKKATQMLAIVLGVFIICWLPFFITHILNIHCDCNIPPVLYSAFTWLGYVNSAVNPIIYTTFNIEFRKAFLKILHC
In short: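 Cells plated overnight at 30 C with tetracycline; no-wash calcium dye, 30–90 min RT; 10 s baseline; compound pinned; 180 s read; EC80 dopamine added; another 180 s read.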
Note: 0% is about no effect.

Structure (SMILES) | inhibition
Cc1ccc(O)c(NC(=O)c2cc(-c3ccc(F)cc3)on2)c1 | 13.5%
Cc1ccccc1OCC(O)CN1CCN(c2ccccn2)CC1 (configuration not stated) | active: 87.2%
Cc1cccc(C(=O)N2CCC(N3CCN(Cc4ccc(F)cc4)C(=O)C3=O)CC2)c1 | 2.64%
Cc1cc2c(cc3c(SCc4cccc(F)c4)nnc(C)n32)o1 | 4.23%
COC(=O)c1ccc(Cl)cc1NC(=O)NC(C)c1c(-n2cccc2)sc(C)c1C (configuration not stated) | -8.06%
COc1ccc(NC(=O)CCc2nc3cccnc3n2-c2ccccc2)cc1Cl | -16.1%
CCc1ccccc1NC(=O)CSc1nc2ncccc2o1 | -17.2%
O=C(CCc1ccccc1)N1CCc2c([nH]c3ccccc23)C1c1ccc(Cl)cc1 (configuration not stated) | 8.7%
Cc1oc2ccc(O)c(CN3CCCCC3C)c2c1C(=O)Nc1ccccc1 (configuration not stated) | 20.9%
O=C(CC(c1cccs1)N1Cc2ccccc2C1=O)Nc1ccc(F)cc1F (configuration not stated) | 4.55%
COc1ccc(C(CNC(=O)Cc2ccc(Cl)cc2)N2CCOCC2)cc1 (configuration not stated) | -1.72%
Cc1oc2ncn(C)c(=O)c2c1C(=O)N(Cc1ccccc1)C(C)C | -5.1%
Cc1ccc(Cl)cc1N1CCN(C(=O)c2ccc(CS(=O)(=O)c3ccc(Br)cc3)o2)CC1 | 5.7%
CCOC(=O)c1c(C)[nH]c(CCC(=O)NCc2cccc(OC)c2)c1C | -1.6%
Cc1ccc(Cl)cc1N1CCN(C(=O)CCn2c(=O)c3cccn3c3cccnc32)CC1 | -0.712%
COCCn1c(SCC(=O)Nc2cccc(C)c2C)nc2c(oc3ccccc32)c1=O | -6.42%
Cc1cc(-c2ccc(S(=O)(=O)Nc3cc(Cl)ccc3C)s2)on1 | 7.32%
COc1ccc(CCNC(=O)c2cc3c(-c4ccc(OC)c(OC)c4)nn(C)c3s2)cc1OC | -2.01%
CCCCOc1ccc(CN(C)c2ncnc(N)n2)cc1 | active: 30.7%
CCOC(=O)C1CCCN(c2c(C(=O)c3ccc(C)cc3)cnc3ccc(OCC)cc23)C1 (configuration not stated) | 15%
COc1ccc(CC(=O)Nc2ccc3nc(Nc4cccc(Cl)c4)cc(C)c3c2)cc1 | -9.23%
COc1ccc(CN2CCN(c3ncccn3)CC2)c(OC)c1 | active: 69.1%
Cc1ccccc1NC(=O)NCCCN1CCN(c2ccccc2)CC1 | active: 79.2%
Nc1c(C(=O)NCCc2ccccc2)nnn1CC(=O)Nc1ccc(Cl)cc1 | 6.01%
COc1cc(NS(=O)(=O)c2ccc3[nH]c4c(c3c2)CCCC4)cc(OC)c1OC | -11.4%

Structure (SMILES) | inhibition
C=Cc1ccc(Cn2c(C(=O)O)c(CNCCc3ccccc3)c3ccc(C)cc32)cc1 | -0.855%
CCCn1c(CCC(=O)Nc2cccc(C)c2C)nc2cccnc21 | 4.83%
Cc1ccccc1OCCCCn1c(C2CC(=O)N(c3ccccc3Cl)C2)nc2ccccc21 (configuration not stated) | -18.9%
COc1ccc(CNC(=O)CCC2N=C3c4ccccc4N=C(SCc4ccc(F)cc4)N3C2=O)cc1 (configuration not stated) | 6.83%
CCN1CCOC(=O)C1CC(=O)Nc1ccc(C)c(Cl)c1 (configuration not stated) | 6.05%
COc1ccc(OC)c(NC(=O)c2c(NCc3ccc(OC)c(OC)c3)sc3c2CCC(C)C3)c1 (configuration not stated) | 13.4%
Nc1c(C(=O)Nc2cccc(F)c2)sc2nc(-c3cccs3)ccc12 | -3.29%
Cc1ccc(S(=O)(=O)N(C)C)cc1NC(=O)Nc1ccccc1F | active: 64.5%
CN1CCN(C2(CNC(=O)c3ccc([N+](=O)[O-])cc3)CCCCC2)CC1 | 5.84%
Cc1cc(C)nc(NS(=O)(=O)c2ccc(NC(=O)c3cc(=O)c4ccc(C)c(C)c4o3)cc2)n1 | 5.65%
Cc1ccccc1-c1nc2scc(CCNC(=O)C(=O)Nc3ccc(F)cc3F)n2n1 | 9.97%
COCCCn1c(=O)c2sccc2n2c(CCCC(=O)Nc3ccc(F)c(F)c3)nnc12 | 3.16%
Cc1ccc2nc(NC(=O)c3ccc(S(=O)(=O)N4CCCc5ccccc54)cc3)sc2c1 | -2.86%
COc1ccc(OC)c(-c2nn(-c3ccccc3)cc2C(=O)NCC(c2ccco2)N2CCCC2)c1 (configuration not stated) | active: 36.5%
CC(CCc1ccccc1)NC(=O)C(=O)Nc1ccccc1 (configuration not stated) | active: 72.3%
COc1ccc(C(=O)N2c3nc(-c4ccco4)nn3C3(CCCCC3)[C@@H]3CCCC[C@@H]32)cc1OC | -14.4%
O=C(NC1CCCCC1)c1ccc(Cn2c(SCc3ccccc3)nc3cccnc32)cc1 | -0.137%
Cc1c(NC(=O)c2cccc(NC(=O)Cc3ccc(Cl)cc3)c2)c(=O)n(-c2ccccc2)n1C | active: 32.7%
CCC(Oc1ccc(F)cc1)C(=O)Nc1nc2c(s1)CCCC2 (configuration not stated) | 4.47%
CCc1ccc(-c2cc(C)no2)cc1S(=O)(=O)NCc1ccco1 | 3.29%
COc1ccc(C2c3c(n(C)c4ccccc34)C(=O)N2CC(=O)Nc2ccc(C)cc2Cl)cc1 (configuration not stated) | 2.24%
CCc1ccc(CNC(=O)Cn2nc(-c3ccc(Cl)cc3)ccc2=O)cc1 | 7.28%
CCN(CC)S(=O)(=O)c1ccc(-c2csc(=Nc3cccc(C(F)(F)F)c3)n2Cc2ccc3c(c2)OCO3)cc1 | -8.75%
COC(=O)Cc1cc(=O)n(-c2nc3ccccc3s2)[nH]1 | active: 36.2%
Cc1ccc(S(=O)(=O)N2CCCc3cc(NS(=O)(=O)c4ccc(F)cc4)ccc32)cc1 | 18.4%

Structure (SMILES) | inhibition
COc1cccc(NC(=O)Cn2c(=O)n(Cc3ccc(C(=O)NCc4ccc5c(c4)OCO5)cc3)c(=O)c3ccccc32)c1 | -5.16%
CN(C)c1ccc(CNC(=O)C2CCN(S(=O)(=O)c3ccc4c(c3)oc(=O)n4C)CC2)cc1 | -9.48%
CCCCCCc1cc2cc(-c3nnc(-c4cccc(Cl)c4)o3)c(=O)oc2cc1O | -3.51%
Cc1ccc(NC(=O)c2oc3ccc(S(=O)(=O)N4CCCCC4)cc3c2C)c(C)c1 | -19.4%
Cc1cccc(N2CCN(C(=O)C(C)n3nc(C)n4c(cc5occc54)c3=O)CC2)c1C (configuration not stated) | -11.6%
Cc1cc(C)c(NC(=O)c2c(C)oc3c2C2=NCCN2C=N3)c(C)c1 | -8.84%
Cc1cc(C)c(NC(=O)CN2C(=O)C3(SCC(=O)N3c3ccc(F)cc3)c3ccccc32)c(C)c1 (configuration not stated) | 9.2%
Cc1ccc(S(=O)(=O)NCCc2nnc3ccc(SCc4ccccc4F)nn23)cc1 | -23.1%
Cc1ccc(N(CC(=O)Nc2ccc(F)cc2F)S(=O)(=O)c2cccs2)cc1 | 6.95%
CCC(=O)C1=C(c2ccccc2)N(C(=O)CC)n2c(nnc2-c2ccccc2)S1 | 20.5%
NC(=O)c1ccccc1NC(=O)CN1CCOCC1 | active: 31.4%
COc1ccc(-c2cccc(NS(=O)(=O)c3cc(C(F)(F)F)ccc3Cl)c2)nn1 | 12.6%
O=c1c(NCc2cccs2)nccn1-c1ccccc1 | -2.35%
COc1ccc(-n2cc(-c3ccccc3)c3c(N4CCCC(C)C4)ncnc32)cc1 (configuration not stated) | 14.6%
CCc1nc2ccc(C(=O)NCc3ccccc3C)cc2nc1CC | 24.7%
Cc1ccc(CN2c3ccccc3-c3nc(SCC(=O)NCc4ccccc4)ncc3S2(=O)=O)cc1 | 6.65%
COc1ccc(C(=O)NCCc2csc(-c3ccc(Cl)cc3)n2)cc1 | 7%
CCOC(=O)c1cc2c(=O)n3ccccc3nc2n(CC2CCCO2)c1=NC(=O)c1cccc(C)c1 (configuration not stated) | 14.6%
O=C(COc1ccccc1F)Nc1nnc(SCc2cc(=O)n3ccccc3n2)s1 | -8.5%
CCOC(=O)c1c(NC(=O)Nc2ccc(F)cc2)sc(C(=O)N(C)C)c1C | -6.11%
Cc1ccccc1Cn1nnc2sc3c(c2c1=O)CCCC3 | -8.9%
CCOc1ccc(NC(=O)Nc2nnc(N3CCCCC3C)s2)cc1 (configuration not stated) | 13%
CCOC(=O)c1sc2ccccc2c1S(=O)(=O)Nc1ccc(OC)c(Cl)c1 | 19%
COc1cccc(CNC(=O)c2c(C)nn(-c3ccc(F)cc3)c2-n2cccc2)c1 | -5.47%
Cc1ccc(NC(=O)Nc2nnc(SCC(=O)N(C(C)C)C(C)C)s2)cc1 | 12.7%

Structure (SMILES) | inhibition
O=S(=O)(NCCc1csc(-c2cccnc2)n1)c1cc(F)ccc1F | active: 39.4%
CCN(CC)c1ccc(C(=O)N2CCc3c([nH]c4ccccc34)C2c2ccc(F)cc2)cc1 (configuration not stated) | -2.29%
CCN1CCCC1CNC(=O)c1ccc(Sc2ccc(F)cc2)c([N+](=O)[O-])c1 (configuration not stated) | active: 34.7%
CC(=O)N1CCc2c(sc3c2c(=O)n(Cc2ccccc2)c(=O)n3Cc2ccc(Cl)cc2)C1 | 4.88%
Cc1cc(C)c(Cn2c(=O)n(CCC(=O)NCCc3ccccc3)c(=O)c3ccccc32)c(C)c1 | 14.2%
COc1ccc(OC)c(CCNC(=O)c2c(C)oc3ncn(CC(C)C)c(=O)c23)c1 | -9.37%
CN1CCN(C(CNC(=O)c2ccc(F)cc2)c2ccc3c(c2)OCO3)CC1 (configuration not stated) | -24.9%
CCOCCCn1c(SCC(=O)Nc2ccccc2CC)nc2ccccc2c1=O | 5.21%
CCOC(=O)Cn1c(=O)oc2cc(S(=O)(=O)N3CCN(c4cccc(Cl)c4)CC3)ccc21 | 4.95%
O=C(O)c1sc(Nc2ccccc2)nc1-c1ccccc1 | -11.4%
CCCCc1ccc(-n2nc3ccc(NC(=O)c4cc5ccccc5o4)cc3n2)cc1 | 1.8%
CC(C)Cc1cc(C(=O)NCc2ccc(Cl)cc2)no1 | -18.1%
Clc1ccc(CSc2ccc(-c3cccs3)nn2)cc1 | 9.38%
COc1ccc(C(=O)NCCSc2c[nH]c3ccccc23)cc1OC | 3.46%
CSc1ncc(C(=O)Nc2cc(C)cc(C)c2)c(-c2ccccc2)n1 | -7.22%
CCC(CC)C(=O)N1c2ccccc2C(C)(c2ccccc2)CC1(C)C (configuration not stated) | -8.99%
COC(=O)CN1C(=O)CSc2ccc(S(=O)(=O)Nc3ccc(F)c(Cl)c3)cc21 | 0.0691%
COc1ccc(-n2c(=O)c3c4c(sc3n(Cc3ccc(F)cc3)c2=O)CN(C(C)=O)CC4)c(OC)c1 | 5.79%
O=C(Cn1cc(S(=O)(=O)Cc2cccc(Cl)c2)c2ccccc21)Nc1ccccc1C(F)(F)F | 14.6%
O=C(CCN=C1NS(=O)(=O)c2ccccc21)Nc1ccc(Cl)cc1F | active: 40.1%
COc1ccccc1CNC(=O)CSc1nc(-c2ccc(OC)c(OC)c2)cc(C(F)(F)F)n1 | -6.57%
O=C(NCC(c1cccs1)S(=O)(=O)c1cccs1)c1ccc(F)c(F)c1 (configuration not stated) | -9.38%
